Experimental data from PubChem BioAssay AID686978 (National Center for Advancing Translational Sciences (NCATS), 2013).
Among all 420,000 compounds or so, about 64,000 (15%) were called active. The inconclusive results got no clear call from the source; some entries with a clear call stand among them for comparison. Calls follow the shape of the dose curve; as a rule, active = well fitted inhibition curve with a large enough effect; inconclusive = small, poorly fitted or top-dose-only effect; inactive = flat fitted curve, though single readings scatter. Potencies of inconclusive entries are left out as doubtful fits.

test: qHTS for Inhibitors of human tyrosyl-DNA phosphodiesterase 1 (TDP1): qHTS in cells in absence of CPT; details: DT40 Tdp1-/- hTDP1 cells, no CPT, ATP luminescence, 48 h; activity change, negative = growth inhibition: at 46.2 µM (top of the series) unless noted; also: nearly all actives have a fitted effect of over 55% in size
Method in brief: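 Chicken DT40 Tdp1-/- cells stably complemented with human TDP1 were seeded at 400 cells/well with DMSO in place of 20 nM camptothecin. After compound pinning, cells grew at least 48 hr at 37 °C; viability read by CellTiter-Glo luminescence.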
% is scaled to controls: 0 for no effect and ±100 for the full control effect; potency is read from the fitted curve at half-maximal effect; tags tell the direction and shape of the fitted curve.

**Q.** Which Potency does the source give for Cn1nc(C(=O)N2CCN(c3ccccn3)CC2)c2ccccc2c1=O here?
**A.** inconclusive [inhibitor, single point]

**Q.** For COc1cc(OC)c2c(O)c3c(c(-c4c5c(c(O)c6c(OC)cc(OC)cc46)CO[C@@H](C)[C@H]5O)c2c1)[C@H](O)[C@H](C)OC3, which Potency is on record?
**A.** inconclusive [inhibitor, full curve, poor fit]

**Q.** For O=C(COCc1cc(-c2ccc3c(c2)OCO3)on1)NCc1ccccc1Cl, which Potency is on record?
**A.** inconclusive [inhibitor, single point]

**Q.** For O=c1c(-c2ccc(O)cc2)coc2cc(OC3OC(CO)C(O)C(O)C3O)ccc12 (centres undefined), which “activity change, negative = growth inhibition” value is on record?
**A.** inactive: -1.05%

**Q.** For Cc1[nH]nc(SCC(=O)Nc2ccc(C#N)cc2)c1[N+](=O)[O-], which “activity change, negative = growth inhibition” value is on record?
**A.** inactive: 19.2%

**Q.** Which “activity change, negative = growth inhibition” value does the source give for O=C(CSc1cn(CC(=O)N2CCOCC2)c2ccccc12)Nc1ccccc1 here?
**A.** inactive: -19.5%

**Q.** With O=C(Nc1ccc(Cl)c(Cl)c1)c1ccncc1 as the molecule, how does the Potency read?
**A.** inconclusive [inhibitor, partial curve]

**Q.** Which Potency does the source give for CCCOc1ccc(F)cc1-c1cc(C(=O)NCc2cccs2)[nH]n1 here?
**A.** active: 7.31 µM

**Q.** For CCOC(=O)c1cnc(-c2ccccc2)nc1N1CC(C)OC(C)C1 (centres undefined), which Potency is on record?
**A.** inconclusive [inhibitor, single point]

**Q.** For CCOc1ccc(CN2CCC(n3nccc3NC(=O)c3ccccc3OC)CC2)cc1, which Potency is on record?
**A.** inconclusive [inhibitor, single point]

**Q.** Which Potency does the source give for O=C(NC1CCN(Cc2ccccc2)CC1)c1ccc(Cn2c(=S)[nH]c3ccc(N4CCOCC4)cc3c2=O)cc1 here?
**A.** inconclusive [inhibitor, single point]

**Q.** For CC(C)(C)NC(=O)C(C1CC1)n1c(=O)c(-c2cc3ccccc3[nH]2)nc2ccccc21 (centres undefined), which Potency is on record?
**A.** inconclusive [inhibitor, single point]

**Q.** Which Potency does the source give for Cc1c(C(=O)NC(C)C)oc2c1-c1[nH]ncc1CC2 here?
**A.** inconclusive [inhibitor, partial curve]

**Q.** For Fc1cccc(Cc2c(-c3ccco3)nc3ccc(Cl)cn23)c1, which Potency is on record?
**A.** inconclusive [inhibitor, single point]

**Q.** With CS(=O)(=O)Nc1cccc(-c2ccc3ncnc(NC4CC4)c3c2)c1 as the molecule, how does the Potency read?
**A.** active: 6.51 µM

**Q.** With COc1cccc(-c2noc(CCC(=O)NC3CCCCC3)n2)c1 as the molecule, how does the Potency read?
**A.** inconclusive [inhibitor, partial curve]

**Q.** With Cc1cc(C)cc(C(=O)NCC(=O)N2CCN(c3cccc(Cl)c3)CC2)c1 as the molecule, how does the Potency read?
**A.** inconclusive [inhibitor, single point]

**Q.** Which “activity change, negative = growth inhibition” value does the source give for CC(=N[C@@H]1CCCC[C@H]1N=C(C)c1ccccc1O)c1ccccc1O here?
**A.** inactive: -12.3%

**Q.** Which Potency does the source give for C[C@H]1CN([C@@H](C)CO)S(=O)(=O)c2ccc(Br)cc2O[C@@H]1CN(C)C(=O)Cc1ccccc1 here?
**A.** inconclusive [inhibitor, single point]

**Q.** With Cc1ccccc1OCC(=O)N(Cc1ccc(N(C)C)cc1)C1CCS(=O)(=O)C1 (centres undefined) as the molecule, how does the “activity change, negative = growth inhibition” value read?
**A.** inactive: -25.3%

**Q.** With O=C(O)c1ccc(Cl)c(S(=O)(=O)Nc2ccc3[nH]c(=O)[nH]c3c2)c1 as the molecule, how does the Potency read?
**A.** inconclusive [inhibitor, single point]

**Q.** For Cc1ccc(C)c2[nH]c(=O)c(C(c3nnnn3CCc3ccccc3)N3CCOCC3)cc12 (centres undefined), which activity change, negative = growth inhibition is on record?
**A.** inconclusive: -31.5% [inhibitor]

**Q.** For CCCCc1nc2n[nH]c(N)c2c2c1CCCC2, which “activity change, negative = growth inhibition” value is on record?
**A.** inactive: -10.2%

**Q.** Which Potency does the source give for C=CCOc1ccc(/C=C/C(=O)OCC(=O)N(C)CC(=O)Nc2ccccc2Cl)cc1 here?
**A.** inconclusive [inhibitor, single point]

**Q.** With CC(C)C(NC(=O)c1ccccc1Br)c1ccccc1 (centres undefined) as the molecule, how does the Potency read?
**A.** inconclusive [inhibitor, single point]

**Q.** Which “activity change, negative = growth inhibition” value does the source give for COc1ccc(/C=C(/NC(=O)c2ccccc2)C(=O)NCCN2CCOCC2)cc1OC here?
**A.** inactive: 7.67%

**Q.** For CCOc1ccc(Oc2ccc(NC(=O)CSc3nncn3C)cc2)cc1, which “activity change, negative = growth inhibition” value is on record?
**A.** inactive: -8.94%

**Q.** With C=CCn1c(SCC(N)=O)nc2ccccc2c1=O as the molecule, how does the “activity change, negative = growth inhibition” value read?
**A.** inactive: -27.4%

**Q.** Which “activity change, negative = growth inhibition” value does the source give for CCOC(=O)c1c(C)[nH]c(C)c1S(=O)(=O)NCCc1ccco1 here?
**A.** inactive: 3.68%

**Q.** With Cc1ccccc1Cc1c(C)nc2nc(SCC(=O)NCCc3ccc(Cl)cc3)nn2c1C as the molecule, how does the Potency read?
**A.** inconclusive [inhibitor, single point]

**Q.** With O=C(COC(=O)c1c2ccccc2cc2ccccc12)NCC(F)(F)F as the molecule, how does the Potency read?
**A.** inconclusive [inhibitor, partial curve, poor fit]

**Q.** Which Potency does the source give for CC(=O)c1ccc(F)c(-c2cc(C)cc3c2OC(CNC(=O)C2CCCCN2C)C3)c1 (centres undefined) here?
**A.** inconclusive [inhibitor, single point]

**Q.** For COc1cccc(CNS(=O)(=O)c2ccc3c(c2)CCN3C(=O)C2CC2)c1, which Potency is on record?
**A.** inconclusive [inhibitor, single point]

**Q.** For c1ccc(-c2cccc(N3CC[C@@]4(CCCNC4)C3)c2)cc1, which Potency is on record?
**A.** active: 6.51 µM

**Q.** For Clc1ccccc1/C=C/C=N/Nc1nc(N2CCOCC2)nc(N2CCOCC2)n1, which Potency is on record?
**A.** active: 23.1 µM

**Q.** Which Potency does the source give for CCC(=O)NC(=S)Nc1ccc(NC(=O)COc2ccc(Cl)c(C)c2)cc1 here?
**A.** active: 16.4 µM

**Q.** For O=C(/C=C/c1ccc2c(c1)OCO2)c1ccc(F)cc1, which Potency is on record?
**A.** inconclusive [inhibitor, single point]

**Q.** Which Potency does the source give for CC(=O)N1CC(=O)N=C1SCC(=O)Nc1nc(C)c(-c2ccccc2)s1 here?
**A.** active: 3.26 µM

**Q.** Which Potency does the source give for CCOc1ccc(NC(=O)c2[nH]c(C)c(C(C)=O)c2C)cc1 here?
**A.** inconclusive [inhibitor, partial curve, poor fit]

**Q.** Which Potency does the source give for CCC(=O)N1CCc2cc(S(=O)(=O)NC(Cc3ccccc3)C(=O)Nc3cccc(OC)c3)ccc21 (centres undefined) here?
**A.** inconclusive [inhibitor, single point]

**Q.** With CCCC#Cc1cnc2c(c1)C(=O)N([C@H](C)CO)C[C@H](C)[C@@H](CN(C)C(=O)CCN1CCCCC1)O2 as the molecule, how does the Potency read?
**A.** inconclusive [inhibitor, full curve]

**Q.** Which Potency does the source give for O=C(c1cc(NC(=O)C23CC4CC(CC(C4)C2)C3)cc(NC(=O)C23CC4CC(CC(C4)C2)C3)c1)N1CCCCC1 here?
**A.** inconclusive [inhibitor, full curve, poor fit]

**Q.** Which “activity change, negative = growth inhibition” value does the source give for CC1=C(C(=O)N(C)C)CC(CC(=O)NC2CCCCC2)C(=O)N1Cc1ccc(F)cc1 (centres undefined) here?
**A.** inactive: -25.4%

**Q.** With Cc1ccc(S(=O)(=O)N2CCN(c3nc(-c4cccs4)nc4ncccc34)CC2)cc1 as the molecule, how does the Potency read?
**A.** inconclusive [inhibitor, single point]

**Q.** Which “activity change, negative = growth inhibition” value does the source give for Cc1ccccc1CNC(=O)c1ccccc1 here?
**A.** inactive: 1%

**Q.** For CCc1ccc(-c2cnc3nc[nH]c(=O)c3n2)cc1, which Potency is on record?
**A.** inconclusive [inhibitor, single point]

**Q.** With CCCCN1C(=N)N([C@@H](CCC)CN2CCC[C@H]2CN2C(N)=NC[C@H]2CC(C)C)C[C@H]1Cc1ccccc1 as the molecule, how does the Potency read?
**A.** inconclusive [inhibitor, single point]

**Q.** With COC(=O)c1ccc2nc(-c3cccc(Cl)c3)c(Cc3cccc(Cl)c3)n2c1 as the molecule, how does the Potency read?
**A.** inconclusive [inhibitor, single point]

**Q.** With CC(C)=C1SC(N2CCN(c3ccc(C)c(Cl)c3)CC2)=NC1=O as the molecule, how does the Potency read?
**A.** inconclusive [inhibitor, partial curve]

**Q.** Which “activity change, negative = growth inhibition” value does the source give for COc1cccc(-n2cnnc2SCC(=O)NC2CC2)c1 here?
**A.** inactive: 0.789%

**Q.** For CCN(CC)C(=O)CSc1ncnc2c1nnn2-c1ccc(F)cc1, which Potency is on record?
**A.** inconclusive [inhibitor, single point]

**Q.** Which Potency does the source give for COC(=O)c1ccc(/C=N/OCC(=O)NCc2ccc(F)cc2)cc1 here?
**A.** inconclusive [inhibitor, single point]

**Q.** With CCC(CC)C(=O)c1c[nH]c(C(=O)NCCc2ccccn2)c1 as the molecule, how does the Potency read?
**A.** inconclusive [inhibitor, single point]

**Q.** For Nc1c2c(nn1-c1ccc(F)cc1)CSC2, which “activity change, negative = growth inhibition” value is on record?
**A.** inactive: -17%

**Q.** For CCOc1ccccc1Nc1ncnc2c1cnn2-c1ccccc1, which Potency is on record?
**A.** inconclusive [inhibitor, single point]

**Q.** With Cc1ccc(OCC(=O)N2N=C(c3cccnc3)CC2(O)C(F)(F)F)cc1C (centres undefined) as the molecule, how does the Potency read?
**A.** inconclusive [inhibitor, single point]

**Q.** Which Potency does the source give for COc1cc(-c2nnc(SCC3(c4ccc(Br)cc4)OCCO3)o2)cc(OC)c1OC here?
**A.** inconclusive [inhibitor, single point]

**Q.** For COc1ccc(N2CCN(c3oc(COc4ccccc4)nc3C#N)CC2)cc1, which Potency is on record?
**A.** inconclusive [inhibitor, single point]

**Q.** For O=C(c1ccc(Cl)cc1)N(Cc1ccccc1F)N1C(=O)CCCC1=O, which “activity change, negative = growth inhibition” value is on record?
**A.** inactive: -16.4%

**Q.** For Cc1ccc(C)c(NC(=O)CSC2=Nc3ccccc3N=C(c3ccc(F)cc3)C2)c1, which Potency is on record?
**A.** inconclusive [inhibitor, single point]

**Q.** For O=[N+]([O-])c1ccc(/C=C/c2ccc3ccccc3n2)cc1, which Potency is on record?
**A.** inconclusive [inhibitor, partial curve]

**Q.** For CCOC(=O)c1cc(S(=O)(=O)N2CCN(c3ccc(C)cc3C)CC2)[nH]n1, which Potency is on record?
**A.** active: 20.6 µM

**Q.** Which Potency does the source give for Cc1cc(C)c(S(=O)(=O)N2CCN(C(=O)C3COc4ccccc4O3)CC2)c(C)c1 (centres undefined) here?
**A.** active: 9.2 µM

**Q.** For COC(=O)CNc1nc(Cl)nc(Nc2ccc(C)cc2)n1, which “activity change, negative = growth inhibition” value is on record?
**A.** inactive: -8.56%

**Q.** For OCCCNc1cc(-c2ccccc2)nc2cc(-c3ccc(F)cc3)nn12, which Potency is on record?
**A.** active: 5.17 µM

**Q.** Which “activity change, negative = growth inhibition” value does the source give for CCC(C)NC(=O)c1ccc(NC(=O)C2=C(C)OCCS2)cc1 (centres undefined) here?
**A.** inactive: -4.06%

**Q.** Which “activity change, negative = growth inhibition” value does the source give for O=C(C[C@@H]1NS(=O)(=O)OC2CCCCC21)c1ccccc1 (some centres undefined) here?
**A.** inactive: -20.8%

**Q.** For COC(=O)[C@]1(C)N[C@H](CN(C)C(=O)c2ccccc2)[C@@H]2C(=O)N(C)C(=O)[C@@H]21, which “activity change, negative = growth inhibition” value is on record?
**A.** inactive: -12.4%

**Q.** Which Potency does the source give for COCCN(C(=O)C(C)C)c1nnc(-c2ccc(C)cc2)s1 here?
**A.** inconclusive [inhibitor, single point]
